Results from PubChem BioAssay AID624172 (National Center for Advancing Translational Sciences (NCATS), 2012).
The whole screen tested about 380,000 compounds, of which about 25 (0.007%) were called active. The shares of active, inactive and inconclusive entries below differ from those in the screen. Calls follow the shape of the dose curve; as a rule, active = well fitted activation curve with a large enough effect; inconclusive = small, poorly fitted or top-dose-only effect; inactive = no such curve, though single readings can be large or run the other way. No potency is given beside an inconclusive call; the fits are too rough.

Molecular target: Glucagon-like peptide 1 receptor (Homo sapiens) (UniProt P43220)
UniProt P43220, sequence (P43220 whole entry, looked up): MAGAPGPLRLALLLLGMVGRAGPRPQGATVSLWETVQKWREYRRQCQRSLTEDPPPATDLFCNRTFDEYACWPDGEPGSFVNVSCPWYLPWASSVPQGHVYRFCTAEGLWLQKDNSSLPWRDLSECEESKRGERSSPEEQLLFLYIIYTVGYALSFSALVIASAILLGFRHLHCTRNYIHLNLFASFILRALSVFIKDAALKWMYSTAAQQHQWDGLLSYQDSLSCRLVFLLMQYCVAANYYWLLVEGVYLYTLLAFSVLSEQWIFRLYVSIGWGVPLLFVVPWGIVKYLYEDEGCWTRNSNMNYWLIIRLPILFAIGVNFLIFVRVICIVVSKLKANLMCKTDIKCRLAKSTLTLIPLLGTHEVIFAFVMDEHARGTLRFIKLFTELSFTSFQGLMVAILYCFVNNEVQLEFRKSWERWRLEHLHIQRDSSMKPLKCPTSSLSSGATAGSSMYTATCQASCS
Assay: qHTS of GLP-1 Receptor Agonists; as to activation: % of control where 0% means no effect
Settings: HEK293 GLP-1R CRE-luciferase, luminescence, 4-6 h, cells express a hypersensitive GLP-1R form; activation: at 45.6 µM (top of the series) unless noted
Text: The overall goal of this project was to develop a novel assay for discovering small molecule ligands for class B1 G protein-coupled receptors (GPCRs). Very few agonists (or inverse agonists) with generally weak activity for this entire group of physiologically important receptors are known to date. To establish proof-of-principle that this critical bottleneck can be overcome with a suitable screening approach, our studies focused on the class B1 receptor for glucagon-like peptide-1 (GLP-1R), a potential therapeutic target for diabetes and neurodegenerative disease.
The assay was developed in a "mix and measure" format using a cell-based functional readout. Toward this goal, stably transfected HEK293 cell clones were established that co-express (i) a cAMP-responsive luciferase reporter gene, and (ii) GLP-1Rs that upon ligand interaction either stimulate (agonists) or inhibit (inverse agonists) luciferase activity. In different cell lines to be used for screening, expressed GLP-1Rs are specifically optimized for high sensitivity detection of either weak agonists (hypersensitive receptor) or inverse agonists (constitutively active receptor mutant). In addition, control cell lines were developed that express either the cAMP-responsive reporter gene without recombinant GLP-1Rs (enabling initial exclusion of GLP-1R independent effects of candidate probes), or the reporter gene together with wild type GLP-1Rs (for confirmation of probe activity at this receptor), or the reporter gene in combination with the constitutively active orphan receptor GPR119 (enabling initial exclusion of GLP-1R independent inhibitory effects of candidate inverse agonists).
To that end, this assay was optimized for 1536-well format and screened against the MLSMR.
NIH Molecular Libraries Probe Production Network [MLPCN]
NIH Chemical Genomics Center [NCGC]
PI Name: Martin Beinborn, Tufts Medical Center
In a white solid 1536-well plate, 6 uL of cells are dispensed in DMEM without phenol red, 10% Nu serum, and 1% pen-strep medium. The plates are then incubated for 12 hours at 37 deg C at 5% CO2 before 23 nL of compounds are added. After a 4-6 hr incubation at37 deg C and 5% CO2, 3 uL of detection reagent are added and after a 12 min incubation at RT, a luminescent read is obtained on the ViewLux.
Potency is read from the fitted curve at half-maximal effect; tags tell the direction and shape of the fitted curve.

SMILES | Potency | activation
Cc1cc(NCCCn2ccnc2)n2nc(C)c(-c3ccccc3)c2n1 | inconclusive [activator, partial curve, poor fit] | 
O=C(CN1CCN(c2ccccc2O)CC1)Nc1cccnc1Cl | inconclusive [activator, partial curve, poor fit] | 
COc1cccc(CC2(CO)CCCN(Cc3c(C)cc(C)cc3-n3cccn3)C2)c1 (stereo not given) |  | inactive: 15%
COc1ccc(C2=NN(C(=O)CSc3nc4ncc(Cl)cc4[nH]3)C(c3ccco3)C2)cc1 (stereo not given) | inconclusive [activator, partial curve, poor fit] | 
N#CC1(Nc2ccc3ccccc3c2)CCCC1 |  | inactive: 12.4%
COC(=O)c1ccc(N)cc1O |  | inactive: 3.7%
O=C(CNC(=O)c1ccco1)Nc1ccc(Cl)cc1 |  | inactive: 5.81%
CCN(C(=O)CSc1ccc2ccccc2n1)C1CCCCC1 | inconclusive [activator, partial curve, poor fit] | 
CC(C)Oc1ccc(CNC(=O)c2ccc3c(c2)N(C)CCS3)cc1 |  | inactive: 12.1%
CCCc1nnc2n1N=C(c1ccc(OC)c(OC)c1)CS2 | inconclusive [activator, partial curve, poor fit] | 
NC(=O)CSc1nc2ccccc2n1Cc1ccccc1F | inconclusive [activator, partial curve] | 
C=CCNc1nc(Cl)nc(Nc2ccc(OC)cc2OC)n1 | inconclusive [activator, single point] | 
COc1cccc2c(=O)c3ccccc3oc12 | inconclusive [activator, single point] | 
Cc1ccc(OCC(=O)Nc2ccc(S(=O)(=O)N3CCCCC3)cc2)c([N+](=O)[O-])n1 | inconclusive [activator, single point] | 
Cc1ccc(CSCC(=O)Nc2cc(S(=O)(=O)N3CCOCC3)ccc2OC(C)C)cc1 | inconclusive [activator, partial curve, poor fit] | 
CC(C)Oc1ccc2c3c(c(=O)oc2c1)CCC3 | inconclusive [activator, partial curve, poor fit] | 
COc1ccccc1/C=N/OCc1ccc(C#N)cc1 | inconclusive [activator, partial curve, poor fit] | 
O=C(CCN1C(=O)c2cccc3cccc(c23)C1=O)NC1CCS(=O)(=O)C1 (stereo not given) |  | inactive: -0.0981%

SMILES | Potency | activation
CCSc1cc(N2CCCC2)nc(-c2ccccc2)n1 | inconclusive [activator, partial curve] | 
CCOc1ncccc1C(=O)N1CCN(c2cc(Cl)ccc2C)CC1 | inconclusive [activator, partial curve, poor fit] | 
Cc1c(NC(=O)/C=C/c2ccc(S(=O)(=O)N3CCOCC3)cc2)c(=O)n(-c2ccccc2)n1C |  | inactive: 5.86%
CCCCCCCN(C(=O)CCl)c1cccc(C)c1 |  | inactive: -13.8%
Cc1nnc(NC(=O)c2ccccc2Oc2ccccc2)s1 | inconclusive [activator, single point] | 
CN(C)c1nc2c(c(=O)[nH]c(=O)n2C)n1CCCc1ccccc1 | inconclusive [activator, single point] | 
CCOC(=O)c1c(NC(=O)c2cccnc2Cl)sc(C(=O)N(C)C)c1C | inconclusive [activator, partial curve, poor fit] | 
CCOc1cc(C(=S)N2CCCCC2)ccc1OCC(=O)NCc1ccccc1 | inconclusive [activator, partial curve, poor fit] | 
COc1ccc(CCN(Cc2cc3cccc(C)c3[nH]c2=O)C(=O)N2CCCC2)cc1OC | inconclusive [activator, partial curve, poor fit] | 
O=C(c1ccccc1)N1N=C(c2ccccc2)CC1c1cccs1 (stereo not given) | inconclusive [activator, partial curve, poor fit] | 
C=CCn1c(=N)c(C(=O)NCCCOC)cc2c(=O)n3ccccc3nc21 |  | inactive: -0.125%
O=C(CCCCCCCCC#CI)Oc1ccccc1 |  | inactive: -1.06%
CN(C)CCOC(c1ccccc1)c1ccccc1 | inactive | 
CCN1CCN(c2ncnc3scc(-c4ccc(C)cc4)c23)CC1 |  | inactive: -6.5%
COc1ccc(-c2csc(C(C)(O)c3ccccc3)n2)cc1OC (stereo not given) | inconclusive [activator, partial curve] | 
Cc1ccc2[nH]c3c(=O)n(CCc4cnc[nH]4)cnc3c2c1 | inconclusive [activator, partial curve, poor fit] | 
NS(=O)(=O)c1ccc(CCNc2nc(C(F)(F)F)nc3ccccc23)cc1 | inconclusive [activator, partial curve] | 
